The text below walks through data of a collection of fitness landscapes (doi:10.1126/science.1257360).

The list shows a part of the results.

To fix the notation:
B1: PhoQ; a variant is named by its letters at X, in order, P23837 (parent)
chain: MKKLLRLFFPLSLRVRFLLATAAVVLVLSLAYGMVALIGYSVSFDKTTFRLLRGESNLFYTLAKWENNKLHVELPENIDKQSPTMTLIYDENGQLLWAQRDVPWLMKMIQPDWLKSNGFHEIEADVNDTSLLLSGDHSIQQQLQEVREDDDDAEMTHSVAVNVYPATSRMPKLTIVVVDTIPVELKSSYMVWSWFIYVLSANLLLVIPLLWVAAWWSLRPIEALAKEVRELEEHNRELLNPATTRELTSLVRNLNRLLKSERERYDKYRTTLTDLTHSLKTPLXXLQXXLRSLRSEKMSVSDAEPVMLEQISRISQQIGYYLHRASMRGGTLLSRELHPVAPLLDNLTSALNKVYQRKGVNISLDISPEISFVGEQNDFVEVMGNVLDNACKYCLEFVEISARQTDEHLYIVVEDDGPGIPLSKREVIFDRGQRVDTLRPGQGVGLAVAREITEQYEGKIVAGESMLGGARMEVIFGRQHSAPKDE

In the experiment the parent is B1. Put plainly: enrichment ratio after two sorts for PhoP signalling (ratio (wild type AVST 3.29)); higher = more functional. Particulars: with PhoP (E. coli).
Turning to LWEI, the enrichment ratio was no more than 0.25. IVPN: the enrichment ratio was no more than 0.25. For DNTW the value was no more than 0.25; for LPIT, no more than 0.25; for TGLF, 9.7. With PMFW, the enrichment ratio is no more than 0.25. Turning to SFYY, the enrichment ratio is no more than 0.25. Consider PAQY, for which the enrichment ratio is no more than 0.25. Turning to LAEL, the enrichment ratio was no more than 0.25.

As to RWDH, the enrichment ratio is no more than 0.25. Turning to THIK, the enrichment ratio was no more than 0.25.

With EAQG, the enrichment ratio was no more than 0.25. With KNDS, the enrichment ratio is no more than 0.25. Take YDGR: the enrichment ratio is no more than 0.25. Take FWHQ: the enrichment ratio stood at 0.747. For TCTH the value was 3.96; for TMWF, no more than 0.25. The same measure for DRLV: no more than 0.25; for MTAR: no more than 0.25. In the case of LGFG, the enrichment ratio was 0.491. For KAME the value was no more than 0.25. In the case of IFEN, the enrichment ratio is no more than 0.25. Consider KHMH, for which the enrichment ratio was no more than 0.25.

Consider VCID, for which the enrichment ratio was no more than 0.25.

Take DNVH: the enrichment ratio was no more than 0.25. As for RDVK, the enrichment ratio is no more than 0.25. As for YVSY, the enrichment ratio is 0.492. Regarding TVCC, the enrichment ratio was found to be 6.39.

For the variant HRQK, the enrichment ratio is no more than 0.25. Turning to MHSW, the enrichment ratio was no more than 0.25.

As for QTLL, the enrichment ratio was no more than 0.25. Regarding QQCG, the enrichment ratio stood at 10.3. For QYKC the value was no more than 0.25; for AIPK, no more than 0.25; for RWAA, no more than 0.25. As for HLHM, the enrichment ratio is no more than 0.25. The same measure for SHMH: 3; for ELRH: no more than 0.25.

In the case of RSYR, the enrichment ratio was no more than 0.25.

With APIN, the enrichment ratio is no more than 0.25. For the variant KRWT, the enrichment ratio is no more than 0.25. On to VAQD, for which the enrichment ratio was no more than 0.25.

For the variant GPMD, the enrichment ratio is no more than 0.25. For the variant NRQL, the enrichment ratio was no more than 0.25. The same measure for KLRH: no more than 0.25.

With SGWY, the enrichment ratio was no more than 0.25. As for VPID, the enrichment ratio was no more than 0.25.

As for YFSM, the enrichment ratio was no more than 0.25. Turning to LCLE, the enrichment ratio was no more than 0.25. For FFDW the value was no more than 0.25. For LKTM, the enrichment ratio is no more than 0.25. The same measure for FNMT: no more than 0.25. In the case of EKIS, the enrichment ratio is no more than 0.25. Take TMMY: the enrichment ratio was 0.451. PKCY: the enrichment ratio was no more than 0.25.

As for DSSK, the enrichment ratio was no more than 0.25. For the variant GMTL, the enrichment ratio stood at 15.2. With LDMW, the enrichment ratio is no more than 0.25. In the case of MLMF, the enrichment ratio is no more than 0.25. As to AEIP, the enrichment ratio is no more than 0.25. The same measure for EFMK: no more than 0.25; for KGDI: no more than 0.25; for LSRW: no more than 0.25. For the variant MAYK, the enrichment ratio is no more than 0.25. With GFSV, the enrichment ratio stood at 1.49.

Regarding VQMR, the enrichment ratio was no more than 0.25. For the variant FGKY, the enrichment ratio is no more than 0.25. Regarding NIDF, the enrichment ratio was no more than 0.25. As to QEES, the enrichment ratio was no more than 0.25. The same measure for PYKS: no more than 0.25. With PIVK, the enrichment ratio was no more than 0.25. In the case of HKTA, the enrichment ratio is no more than 0.25. In the case of FLTD, the enrichment ratio was no more than 0.25. As for GGHE, the enrichment ratio is no more than 0.25.

Consider KDWI, for which the enrichment ratio was no more than 0.25.

Regarding VTCH, the enrichment ratio is no more than 0.25. For DFSQ the value was no more than 0.25. On to KAKN, for which the enrichment ratio was no more than 0.25. In the case of YMPT, the enrichment ratio was no more than 0.25. The same measure for HFLG: no more than 0.25; for TNIP: no more than 0.25; for QWYP: no more than 0.25.

For PLES, the enrichment ratio is no more than 0.25. WATF: the enrichment ratio was no more than 0.25. On to DESI, for which the enrichment ratio is no more than 0.25. As to QTAD, the enrichment ratio was no more than 0.25. Consider SFVH, for which the enrichment ratio was no more than 0.25. Turning to HCRS, the enrichment ratio is no more than 0.25. For KYMH the value was no more than 0.25. As for RLYW, the enrichment ratio was no more than 0.25. In the case of IGDT, the enrichment ratio is no more than 0.25. For the variant FSST, the enrichment ratio is no more than 0.25.

As for HRTF, the enrichment ratio was no more than 0.25. Turning to HYGR, the enrichment ratio is no more than 0.25. On to GCNL, for which the enrichment ratio was no more than 0.25. Regarding YDPA, the enrichment ratio is no more than 0.25. Turning to DMKD, the enrichment ratio is no more than 0.25. Take WHNP: the enrichment ratio is no more than 0.25. For KRSN, the enrichment ratio is no more than 0.25. With QRPI, the enrichment ratio is no more than 0.25.

Regarding NWNW, the enrichment ratio was no more than 0.25. LQNW: the enrichment ratio was no more than 0.25. With TNPH, the enrichment ratio was no more than 0.25.

TMVD: the enrichment ratio is no more than 0.25. On to FYYE, for which the enrichment ratio is no more than 0.25. On to LAAS, for which the enrichment ratio was no more than 0.25. On to GHTI, for which the enrichment ratio is no more than 0.25.

DAFW: the enrichment ratio is no more than 0.25.

Consider NPHS, for which the enrichment ratio is no more than 0.25. Turning to LLIE, the enrichment ratio was no more than 0.25. VCSS: the enrichment ratio turned out to be 0.263.

Turning to MCKL, the enrichment ratio was no more than 0.25. For YLQH, the enrichment ratio was no more than 0.25. With IIWD, the enrichment ratio was no more than 0.25. Regarding FYTL, the enrichment ratio is no more than 0.25. Regarding FQRM, the enrichment ratio was 1.38. Take LLWG: the enrichment ratio is no more than 0.25. For DMKH the value was no more than 0.25; for RQQF, no more than 0.25. For the variant AHWN, the enrichment ratio is no more than 0.25. For VQHY the value was no more than 0.25.

As for KWSL, the enrichment ratio is no more than 0.25. Take KNDV: the enrichment ratio is no more than 0.25. Consider LESG, for which the enrichment ratio was no more than 0.25. Consider SGKF, for which the enrichment ratio is no more than 0.25. As for MIVR, the enrichment ratio is no more than 0.25.

For the variant RIRG, the enrichment ratio was no more than 0.25.

Consider ITCW, for which the enrichment ratio is no more than 0.25. Take YCTV: the enrichment ratio is 0.338. As for QLDC, the enrichment ratio was no more than 0.25. For the variant AGHV, the enrichment ratio is no more than 0.25. As for TTGV, the enrichment ratio was determined as 2.49.

Turning to ARAT, the enrichment ratio was no more than 0.25.

Turning to GVRK, the enrichment ratio is no more than 0.25. For PFQA the value was no more than 0.25; for QNHK, no more than 0.25; for QPPM, no more than 0.25.

Turning to KKRV, the enrichment ratio is no more than 0.25.

Take PAWT: the enrichment ratio was no more than 0.25.

With AASK, the enrichment ratio turned out to be 0.881. On to QTTG, for which the enrichment ratio is no more than 0.25. Turning to NSWV, the enrichment ratio was no more than 0.25. Consider YKHH, for which the enrichment ratio was no more than 0.25. Consider YMVF, for which the enrichment ratio is no more than 0.25.

As to MDVD, the enrichment ratio is no more than 0.25. IRTH: the enrichment ratio is no more than 0.25. In the case of FQYI, the enrichment ratio was no more than 0.25. On to NFGP, for which the enrichment ratio is no more than 0.25. For YAMQ, the enrichment ratio turned out to be 0.285. For the variant QCRR, the enrichment ratio was no more than 0.25. As for GEDP, the enrichment ratio was no more than 0.25. On to ACYA, for which the enrichment ratio is no more than 0.25. As for DMIS, the enrichment ratio was no more than 0.25.
